The other results are listed elsewhere or left out. At the low end of the ranking the order means little. Measured with an extract: partners may take part in the binding.
Molecular target: T1, HNF4alpha8 (COS-7 nuclear extract) (UniProt P41235-5)
T1 sequence: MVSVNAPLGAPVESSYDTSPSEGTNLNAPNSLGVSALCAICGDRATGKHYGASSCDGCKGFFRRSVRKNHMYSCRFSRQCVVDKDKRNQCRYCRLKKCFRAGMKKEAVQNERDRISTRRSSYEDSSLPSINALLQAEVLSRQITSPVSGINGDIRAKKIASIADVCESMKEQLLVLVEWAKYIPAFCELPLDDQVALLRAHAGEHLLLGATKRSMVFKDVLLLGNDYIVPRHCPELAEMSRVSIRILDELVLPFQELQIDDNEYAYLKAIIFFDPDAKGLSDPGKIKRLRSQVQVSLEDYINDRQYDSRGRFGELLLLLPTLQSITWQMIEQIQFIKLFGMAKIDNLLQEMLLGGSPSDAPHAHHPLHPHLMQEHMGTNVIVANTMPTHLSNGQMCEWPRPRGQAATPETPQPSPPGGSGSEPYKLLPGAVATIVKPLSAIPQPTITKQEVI
Assay: protein-binding microarray
Conditions: COS-7 nuclear extract on double-stranded Agilent 4x180k PBM; binding buffer, salt, pH and temperature not given; high values mean tight binding; double strand, one strand shown; sequences stand for … in …GCCTAGGGAGATTAGAGTATCGGTCGA

Sequence | binding signal (log2 normalized intensity)
AAAACTTGGACTCTATAGCCTATGCTTTGT | 1.96
GCAGTGAGGGTGGGTTCAAAGGTCAGAAAA | 8.97
GCCTTATTATCTGCTTTTATGACCTTTGAC | 8.05
TGACTTGGGTGCACCAATGATCAAAGAGAC | 0.159
TTTTCGAATGGACAGGATGTTCTACACTGC | -0.47
AGCAAAGGTTGGCTAAAGATAACCTAGAAA | -1.4
GAGCTACCGCCTGAACCTTGGATCTCCTGC | 2.94
GTTTTGAAAGACCTTTTCCCTCCCTCCCAG | 3.76
CCCCGTTCCCGGCAGCCCGCGCGTGGCCCA | 2.04
CCAGCTCCTCTTCACACCATGCTCTAGTCT | -0.491
GCCAGATGGCCACCCTTCAGCAAATAGTGG | -1.4
AGTGTGCAAATGTGTCTTTTTTAGTCAGCA | 1.41
ACCCAAATATGGTCCCTGACCTTAAGGAGT | 2.69
TGATGAGTCCAAGTTCCACATCAAGCACAT | 1.35
TTATGTTCACCTCAGCACTGAGATAAAAAT | -0.239
ATTGCAAGGATTCCAAATTTAGTGAGTGGT | 0.389
CATCTGCTCACATACCACTGACTAAAGCAA | -1.3
ACTTATCAGGGTTATTTGCTAAAACTGGGC | 0.724
CCCAGCAGGCAGACTGGCTCCGCTGCTGCA | -1.33
TTAAAGGGCAGAAGAAGGGATTTAGATTAG | -1.34
AGAGGAAGATCTTTTTGATGACTTTGTAGG | 0.915
AATGTAGCCGGCTCAAAATAGGCAAGACTG | -1.3
AATCTTTCAGGAATCTCAGGAGTGATGCCA | -1.31
ATTGCCATCTGCAAGAGAGAATAGATAGTG | -1.22

Sequence | binding signal (log2 normalized intensity)
TGCGGTAGGCATTGAGGCAGCCAGCGCAGG | -1.31
TCAAAGACTCAGATGAGTTTCTTCACTGAC | -1.07
GAAATGGATTTTTTGGGTAAAGTCCAGGCA | 3.03
GGAGTAGGCTTTAGATAAGGTATGTGGGAG | -0.393
ATCCTCAAGAAACACAGAACTATCAAACAT | -1.32
ACATAAATGTGCCCAGATAAGAACTGCAAG | -1.43
AGATAAGGAGGAGACAGACTTATCGGGTAG | -1.27
ACTTTCTTGTTTACTCACCTGATTCAATGT | 1.43
CGCGCCGGGCACTGATAACGCCCGCCTAAC | -1.21
TTGGGCTAGCCGCTCCTCCCACGTCGCTGC | -1.14
TGAAAATACAAACAAATTGTGTGCAACAGG | -0.714
GCCATTGTTCATACTGCAGCTCTGCGTCTT | -0.894
CTGCAGGTCTCTAAATGGTAGGATTGTTTG | 0.912
AGGTAGAGGGACACTGATAACACTGATAAC | -1.36
GACGACTTACTTTTATCAGGTAAAGATATG | 0.855
GTTGCAACTTTGACTATAGCGTCTCCTGGC | -1.38
CTAACGTATGGACTTTCTGATGTCAGAAAA | 1.79
AGCTCTGAACTAACAATTCTTTCTGATAAG | -0.922
ACAAGGAAAAATGACCATCTCGTCAAGGTG | -1.4
ATTCCACCCTCATTTGCTTGACCCGGGTAC | 3.18
GGGCATGAAGTCAAAGGAGGCATTCCTGCA | -1.25
AACTGTGTAATAAGGAGTTGTGTGATAAGG | 1.31
TTCAAAGGTAGGGCCTACCTGCCTGAGCTA | -1.45
TGTTGGGGAACTTTGCCCGGATTCCAGCAA | 2.22

Sequence | binding signal (log2 normalized intensity)
GTTTGCAAGCCCAAAGCCCCCAGAGGTTCT | 3.19
GGGCTGAGCCCACAGTCCAGTACCATTTCC | -0.908
GCCCCAGTGATGACAGCAAGATAATGTCAA | 1.44
AGGTTACAATTGTCCCCAAGATTGAGGCCA | 1.53
CCTCCTGTGGTAATAAGTTGGTGGACGCTG | 1.13
TAACAGACTGTAGGCTTGGAGCCTTGTAAA | -1.26
CCATGGACCTGACACCCGCTGGCGCCATCC | -1.33
GGAATGTCCTGGCAGGCTTCGAAAAATGGG | -1.29
GCAGGTGAACGACTTGACAAAGGTCATTCA | 5.13
GGTCAAAGTGCGTCCTGTGGCAAAGGTGAA | 3.03
GTACTTTGGAACCTGAAAGAGCAACTACTC | 3.35
GAATCCCGGGAATCCTCAGCCTTCTCCGCG | -1.32
CAAATATTTACTGAATGAATGTCCAACTTG | 0.916
TGAGGGTAAAGATCTTGAGGCCCACAAGGA | -1.22
AACTCTTCATTATGGATAGGCACATATTGG | 1.3
GTGCTATCTCAGCTCACTGTAACCTTTGCC | 4.68
TCTCCAAGTCAAACATTAGCCAGGATCAGA | -1.39
AGGCATTAGCAATGCGAGAGTACACAGAAG | -1.28
CGAGTTGTTCTCCGTCTATAAATACGCCTC | -1.19
TCCTGCTAGTCACATCAAAACCTCCCAGCT | -1.22
TGGGGGAAGGGCAGGGCCTGGGAGATAACC | -1.21
TGGGTTATGTTAGACCAGCCAATTCTACTG | -1.08
AATAGTGACCTCTGCTGGCCAGTGGAAAAC | 1.37
GGCATGGGAAGCAGTGAGGGTGGGTTCAAA | 1.64
